# Assay results from the supplement of paper PMC8728848.
# Some of the results follow.
# Legend:
# Experiment in all cases: glycan array binding signal (z-score within array); higher = stronger binding
# Conditions in all cases: glycan notation: IUPAC condensed, linker removed
# [1] = target: GalNAc(b1-4)GlcNAc(b1-2)Man
# Outline: (§1)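 Columns mapping to the same glycan were averaged after glycan names were converted to IUPAC-condensed notation. The data come from 3228 arrays in the Consortium for Functional Glycomics database, limited to those with an available protein sequence. Binding is reported as a within-array Z-score averaged across arrays of one protein sequence and across linkers.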
# [2] = target: GalNAc(b1-4)GlcNAc(b1-2)Man(a1-3)[GalNAc(b1-4)GlcNAc(b1-2)Man(a1-6)]Man(b1-4)GlcNAc(b1-4)GlcNAc
# Outline: as §1
# [3] = target: GalNAc(b1-4)GlcNAc(b1-3)GalNAc(b1-4)GlcNAc
# Outline: as §1
# GalNAc(b1-4)GlcNAc6S = target: GalNAc(b1-4)GlcNAc6S
# Outline: as §1
# GalNAc(b1-6)GalNAc = target: GalNAc(b1-6)GalNAc
# Outline: as §1
# GalNAc3S(b1-4)GlcNAc = target: GalNAc3S(b1-4)GlcNAc
# Outline: as §1
# GalNAc3S(b1-4)GlcNAc3S = target: GalNAc3S(b1-4)GlcNAc3S
# Outline: as §1
# [4] = target: GalNAc3S(b1-4)[Fuc(a1-3)]GlcNAc
# Outline: as §1
# GalNAc4S6S(b1-4)GlcNAc = target: GalNAc4S6S(b1-4)GlcNAc
# Outline: as §1
# GalNAc6S(b1-4)GlcNAc = target: GalNAc6S(b1-4)GlcNAc
# Outline: as §1
# Glc(a1-4)Glc = target: Glc(a1-4)Glc
# Outline: as §1
# [5] = target: Glc(a1-4)Glc(a1-4)Glc(a1-4)Glc
# Outline: as §1
# Glc(a1-6)Glc(a1-6)Glc = target: Glc(a1-6)Glc(a1-6)Glc
# Outline: as §1
# [6] = target: Glc(a1-6)Glc(a1-6)Glc(a1-6)Glc
# Outline: as §1
# Glc(b1-4)Glc = target: Glc(b1-4)Glc
# Outline: as §1
# Glc(b1-6)Glc = target: Glc(b1-6)Glc
# Outline: as §1
# GlcA(b1-3)Gal = target: GlcA(b1-3)Gal
# Outline: as §1
# GlcA(b1-3)GlcNAc = target: GlcA(b1-3)GlcNAc
# Outline: as §1
# GlcA(b1-6)Gal = target: GlcA(b1-6)Gal
# Outline: as §1
# [7] = target: GlcA3S(b1-3)Gal(b1-4)GlcNAc(b1-2)Man
# Outline: as §1
# [8] = target: GlcA3S(b1-3)Gal(b1-4)GlcNAc(b1-3)Gal(b1-4)Glc
# Outline: as §1
# [9] = target: GlcNAc(a1-3)Gal(b1-4)GlcNAc
# Outline: as §1
# [10] = target: GlcNAc(a1-4)Gal(b1-3)GlcNAc
# Outline: as §1
# [11] = target: GlcNAc(a1-4)Gal(b1-4)GalNAc
# Outline: as §1
# [12] = target: GlcNAc(a1-4)Gal(b1-4)GlcNAc
# Outline: as §1
# [13] = target: GlcNAc(a1-4)Gal(b1-4)GlcNAc(b1-3)Gal(b1-4)Glc
# Outline: as §1
# [14] = target: GlcNAc(a1-4)Gal(b1-4)GlcNAc(b1-3)Gal(b1-4)GlcNAc
# Outline: as §1
# [15] = target: GlcNAc(a1-4)Gal(b1-4)GlcNAc(b1-3)Gal(b1-4)GlcNAc(b1-3)Gal(b1-4)GlcNAc
# Outline: as §1
# [16] = target: GlcNAc(a1-4)Gal(b1-4)GlcNAc(b1-3)Gal(b1-4)[Fuc(a1-3)]GlcNAc(b1-3)Gal(b1-4)[Fuc(a1-3)]GlcNAc
# Outline: as §1
# [17] = target: GlcNAc(a1-6)Gal(b1-4)GlcNAc
# Outline: as §1
# [18] = target: GlcNAc(b1-2)Gal(b1-3)GalNAc
# Outline: as §1
# [19] = target: GlcNAc(b1-2)Man(a1-3)[GlcNAc(b1-2)Man(a1-6)]Man(b1-4)GlcNAc(b1-4)GlcNAc
# Outline: as §1
# [20] = target: GlcNAc(b1-2)Man(a1-3)[GlcNAc(b1-2)Man(a1-6)]Man(b1-4)GlcNAc(b1-4)[Fuc(a1-6)]GlcNAc
# Outline: as §1
# [21] = target: GlcNAc(b1-2)Man(a1-3)[GlcNAc(b1-4)][GlcNAc(b1-2)Man(a1-6)]Man(b1-4)GlcNAc(b1-4)GlcNAc
# Outline: as §1
# [22] = target: GlcNAc(b1-2)Man(a1-3)[GlcNAc(b1-4)][GlcNAc(b1-2)Man(a1-6)]Man(b1-4)GlcNAc(b1-4)[Fuc(a1-6)]GlcNAc
# Outline: as §1
# [23] = target: GlcNAc(b1-2)[GlcNAc(b1-4)]Man(a1-3)[GlcNAc(b1-2)Man(a1-6)]Man(b1-4)GlcNAc(b1-4)GlcNAc
# Outline: as §1
# [24] = target: GlcNAc(b1-2)[GlcNAc(b1-4)]Man(a1-3)[GlcNAc(b1-4)][GlcNAc(b1-2)Man(a1-6)]Man(b1-4)GlcNAc(b1-4)GlcNAc
# Outline: as §1
binder,measurement,setting,value
PX9937A-bvu-521-23-521 (Bacteroides vulgatus) (protein) LDLAPEDYYGAGNFWKEASQPKAFMLGLHAQLRSYYDMFYTLGELRGGTQRVGTSSLNTSLNYADIRSQNISEDIPGISNWNGLYSPIMQVNHFIQEVENGCTFLDDATRSRYLGQAYGMRALYYFMLYRTFGGVPLITKVDILDGKPSADKFYVERATPEATMEFIKADINKSENYFGNNTSFDAYDWSRYATLMLKAEIYMWAAKVSITGFTATGATDLQTAKTALSGIIGHFELMDNFASIFSCDNKKNTEIIFAMPFIEGEASNDGGRFLYQDAVFLGQAYGRNGKVIEKDTLNLKGTGGVFRDEYTEDFWKTFKEGDSRRDATFMEYYMKNDNGTLSEFGCVMKKRIGTINSNDNRIYISDIPVYRYADALLMMAEIENGLNNPCASYINEVRKRAYGDTFEENKYTEGSYAENELAILQERDKEFVSEGKRWFDVLRMHDASGRSLVFSANANYPGTNPILGTEEAYKMLWPVNIGTLNVNPLLTQTPGYGKK,glycan array binding signal (z-score),[1],0.13
same,glycan array binding signal (z-score),[2],-0.274
same,glycan array binding signal (z-score),[3],-0.093
same,glycan array binding signal (z-score),GalNAc(b1-4)GlcNAc6S,0.089
same,glycan array binding signal (z-score),GalNAc(b1-6)GalNAc,-0.402
same,glycan array binding signal (z-score),GalNAc3S(b1-4)GlcNAc,-0.552
same,glycan array binding signal (z-score),GalNAc3S(b1-4)GlcNAc3S,-0.273
same,glycan array binding signal (z-score),[4],-0.255
same,glycan array binding signal (z-score),GalNAc4S6S(b1-4)GlcNAc,0.055
same,glycan array binding signal (z-score),GalNAc6S(b1-4)GlcNAc,-0.356
same,glycan array binding signal (z-score),Glc(a1-4)Glc,-0.059
same,glycan array binding signal (z-score),[5],1.98
same,glycan array binding signal (z-score),Glc(a1-6)Glc(a1-6)Glc,-0.379
same,glycan array binding signal (z-score),[6],-0.034
same,glycan array binding signal (z-score),Glc(b1-4)Glc,-0.305
same,glycan array binding signal (z-score),Glc(b1-6)Glc,-0.325
same,glycan array binding signal (z-score),GlcA(b1-3)Gal,-0.456
same,glycan array binding signal (z-score),GlcA(b1-3)GlcNAc,-0.262
same,glycan array binding signal (z-score),GlcA(b1-6)Gal,-0.424
same,glycan array binding signal (z-score),[7],-0.562
same,glycan array binding signal (z-score),[8],-0.349
same,glycan array binding signal (z-score),[9],0.048
same,glycan array binding signal (z-score),[10],-0.348
same,glycan array binding signal (z-score),[11],-0.293
same,glycan array binding signal (z-score),[12],-0.323
same,glycan array binding signal (z-score),[13],-0.232
same,glycan array binding signal (z-score),[14],-0.421
same,glycan array binding signal (z-score),[15],-0.31
same,glycan array binding signal (z-score),[16],0.379
same,glycan array binding signal (z-score),[17],-0.372
same,glycan array binding signal (z-score),[18],-0.347
same,glycan array binding signal (z-score),[19],-0.423
same,glycan array binding signal (z-score),[20],-0.224
same,glycan array binding signal (z-score),[21],-0.097
same,glycan array binding signal (z-score),[22],-0.211
same,glycan array binding signal (z-score),[23],-0.709
same,glycan array binding signal (z-score),[24],-0.344
